From PubChem BioAssay (NCI)
Values joined by “and” are separate entries in the source; they are usually repeats but may differ in a detail not shown here. Equal entries are not always repeated.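 Five concentrations, 48 hours, 96-well plates. Abbreviation: GI50, concentration required for 50% inhibition of growth. TGI: total growth inhibition.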

tested on: NCI-H322M lung; assay: NCI anticancer screen, dose series, 48 h

SMILES	TGI	GI50
COc1ccc(N2C(=O)c3c(c4[nH]c5ccccc5c4c4ccc(C(C)(C)C)cc34)C2=O)cc1	> 100 µM	
COc1ccc2nc3cc(Cl)ccc3c(NCCCNCCO)c2c1	2.33 µM	0.404 µM
COc1cc(/C=C2\C(=O)N(Cc3ccc(Cl)cc3)c3ccccc32)cc(OC)c1OC	26.6 µM	3.72 µM
O=[N+]([O-])C(=C/c1ccccc1)/C(=C\c1ccccc1)[N+](=O)[O-]	54.1 µM	
CC(C)(C)c1cc(C(=O)Nc2ccccc2C(=O)NCCN)cc(C(C)(C)C)c1	3.7 µM	1.93 µM
COc1ccc(-n2c(CCC(=O)O)nc3c2C(=O)c2ccccc2C3=O)cc1	> 100 µM	
CC1(C)OC(=O)C(C)(C)C(=O)O1	> 100 µM	
Cc1ccc(/C=C2\Sc3scc(-c4ccccc4)[n+]3C2=O)cc1	> 77.2 µM	
COC1C2C[C@@H](O)CCC2C(C(=O)OCCl)C[C@H]1O (some centres undefined)	> 100 µM	
COc1cc(-c2cc(/C=C/C(=O)c3ccc(F)c(F)c3)[nH]n2)cc(OC)c1OC	> 100 µM	3.37 µM
CC1(C)C2CCC3CC(CCC#N)CCC3C21C#N (centres undefined)	> 100 µM	
OCC1O[C@H](O[C@@H]2CCCN3CC(O)C(O)[C@@H]23)C(O)C(O)C1O (some centres undefined)	> 100 µM	
O=C(NCCN1CCCCC1)c1ccc(Br)cc1	> 100 µM	
COC(=O)c1ccc2c(c1)CC1(C2)Cc2cc3c(cc2C1)CCC3	> 100 µM	
COc1ccc(C(O)c2cc3c(N)c(C(=O)Nc4ccc(Cl)cc4)sc3nc2C)cc1 (centres undefined)	35.6 µM	4.18 µM
CC(C)[C@@H]1CC[C@@H](C)C[C@H]1OC(=O)c1c2n(c3ccccc13)C[C@H]1OC(C)(C)O[C@@H]21	> 100 µM	
COc1cc2c(c(OC)c1OC)-c1ccc(SC)c(=O)cc1[C@@H](NCc1ccc(F)cc1)CC2	75 µM and 34.5 µM	
O=C(c1ccc(O)cc1O)C1C(c2ccc(O)cc2)OC(c2ccc(O)cc2)C1C(=O)c1ccc(O)cc1O (centres undefined)	44.4 µM	
Cc1ccc(NC(=O)CCCC(=O)CC(=O)c2ccc(Br)cc2)cc1	> 100 µM	
Brc1ccc(C2C3CSc4ccccc4C3=NN2c2ccccc2)cc1 (centres undefined)	> 100 µM	
O=C1OC(c2ccccc2)=NC1c1ccccc1 (centres undefined)	> 100 µM	
Nc1nc(NNc2cccc(F)c2)cc(=O)[nH]1	> 100 µM	
CCOC(=O)c1c(-c2ccccc2)[n+](=O)c2cc(Cl)c(Cl)cc2n1[O-]	30.6 µM	15.4 µM
O=C(Nc1ccc(Oc2ccc3nc(NC(=O)c4ccco4)[nH]c3c2)cc1)Nc1cc(C(F)(F)F)ccc1F	> 20.4 µM	3.46 µM

SMILES	TGI	GI50
COC(=O)NC1C(C)OC(OC2C/C=C(/C)C3C=CC4C(OC5CC(OC6CCC(OC7CC(O)C(OC8CCC(O)C(C)O8)C(C)O7)C(C)O6)C(OC(C)=O)C(C)O5)C(C)CC(C)C4C3(C)/C(O)=C3/C(=O)OC4(CC(C=O)=CC(O)C4/C=C\2C)C3=O)CC1(C)[N+](=O)[O-] (centres undefined)	4.6 µM	
O=C1C(c2ccccc2)=C(c2ccccc2)C(c2ccc(Cc3ccc(C4=C(c5ccccc5)C(=O)C(c5ccccc5)=C4c4ccccc4)cc3)cc2)=C1c1ccccc1	> 100 µM	
CC(C)(C)c1cc(CCC(=O)Nc2ccc(Cl)cc2)[nH]c(=S)n1	> 100 µM	
O=C1CC2OCC=C3CN4CCC56c7ccccc7N1C5C2C3CC46O (centres undefined)	> 100 µM	
COc1cc2ccc3c4ccccc4cnc3c2cc1OC	> 100 µM	
c1cc(N[C@@H]2CCNC2)nc(-c2cnc3ccc(-c4cn[nH]c4)cn23)c1	31.1 µM	4.39 µM
COC(=O)CCSC(=O)Nc1ccc(N=Nc2ccccc2)cc1	> 100 µM	
FC(F)(F)c1ccccc1C1SCC2=Nc3ccccc3CN21 (centres undefined)	26.5 µM	
CC(C)(C)OC(=O)NC1CCCC1C(=O)C1=CCCC1 (centres undefined)	> 100 µM	
CC(C)(O)/C1=C/C=C/CCCCCCCCCC1	> 100 µM	
C=C1CC(C)(COc2ccc3c(C)c(Cl)c(=O)oc3c2)OC1=O (centres undefined)	19 µM	
CCCCN(CCCC)C(=O)[C@H](CC)[C@@H]1CC[C@@H](C)[C@@H]([C@H](C)[C@@H](O)[C@@H](C)C(=O)[C@H](CC)C2O[C@]3(C=C[C@@H](O)[C@]4(CC[C@@](C)([C@H]5CC[C@](O)(CC)[C@H](C)O5)O4)O3)[C@H](C)C[C@@H]2C)O1 (some centres undefined)	9.71 µM	2.66 µM
Cc1ccc(S(=O)c2cccs2)cc1 (centres undefined)	> 100 µM	
CN(C)CCNC(=O)c1cccc2c1nc(-c1ccc(F)cc1)c1ccccc12	15.6 µM	
O=c1[nH]nc(Cc2ccccc2)n1/N=C/c1cccs1	> 100 µM	
COC1=C(N)C(=O)c2nc(-c3nc(C(=O)O)c(C)c(-c4ccc(OC)c(OC)c4O)c3N)ccc2C1=O		0.0554 µM and 0.0296 µM and 0.0136 µM
N#CCn1c(=O)c(Oc2ccc(F)cc2F)cc2cnc(NC3CCOCC3)nc21	> 25 µM	> 25 µM
COc1ccc(-c2cc(=O)c3c(O)c(OC)c(OC)c(OC)c3o2)cc1OC	> 100 µM	
COc1cnc2c(c1)C(=O)c1c-2n(CCCNC2=NCCS2)c(=O)c2cc(F)ccc12	19.3 µM	0.368 µM
O=C1N=C2SC=C(NC(=S)Nc3ccccc3)N2NC12c1ccccc1-c1ccccc12	> 10 µM	
C/C(=N\O)c1ccc2ccc3ccccc3c2c1	> 100 µM	
CC(=O)C1CCN(c2ccccc2)C1 (centres undefined)	> 100 µM	
O=C1NC(=NCc2ccccc2Cl)S/C1=C\c1ccc2ncccc2c1	> 25 µM	2.92 µM
